Laboratory results published in the antibiotic and cytotoxicity screens of Wong et al. (2023).
Some of the results follow.

test system: S. aureus RN4220; assay: growth inhibition call (relative growth <= 0.2); conditions: 50 µM

Growth inhibition call, inactive:
Cc1noc(C)c1S(=O)(=O)Nc1ccc2c(c1)CC(=O)N([C@H](C)CO)C[C@H](C)[C@@H](CN(C)C(=O)Nc1ccc3c(c1)OCO3)O2
Cl.NCC(=O)CCC(=O)O
C[C@@H]1CCCCO[C@@H](CN(C)C(=O)Cc2ccccc2)[C@H](C)CN([C@H](C)CO)C(=O)c2cc(NC(=O)c3ccccc3)ccc2O1
Cc1ccc(S(=O)(=O)Nc2ccc3c(c2)C(=O)N([C@H](C)CO)C[C@H](C)[C@@H](CN(C)C(=O)NC(C)C)O3)cc1
C[C@@H]1CCCCO[C@H](CN(C)Cc2ccc(C(F)(F)F)cc2)[C@H](C)CN([C@@H](C)CO)C(=O)c2cc(NC(=O)CCCN(C)C)ccc2O1
C[C@@H]1CN([C@H](C)CO)C(=O)c2cc(NC(=O)Nc3ccccc3)ccc2O[C@@H](C)CCCCO[C@H]1CN(C)C(=O)c1ccccc1
COCC(=O)N1C[C@]2(C1)CN([C@@H](CO)c1[nH]c3cc(ccc3c12)OC)S(=O)(=O)C
OC[C@H]1O[C@@H](Oc2cccc(O)c2CCCc2ccc(O)cc2)[C@@H](O)[C@@H](O)[C@@H]1O
O=C(/C=C/c1ccc2c(c1)O[C@@H](C(=O)O)[C@@H](c1ccc(O)c(O)c1)O2)O[C@H](Cc1ccc(O)c(O)c1)C(=O)O
C[C@@H]1CN([C@@H](C)CO)C(=O)c2cc(-c3cncnc3)cnc2O[C@@H]1CN(C)C(=O)CN1CCOCC1
CCc1cccc(C)c1NC(C)=O
CC(C)(C)[S@](=O)N1Cc2cc(C(=O)NCc3ccccn3)nc(-c3cccc(-c4ccccc4F)c3)c2[C@@H]1CCO
COc1ccc(S(=O)(=O)N(C)C[C@H]2Oc3ccc(NC(=O)NC(C)C)cc3C(=O)N([C@H](C)CO)C[C@@H]2C)cc1
C[C@@H]1CN([C@@H](C)CO)C(=O)c2cc(NS(=O)(=O)c3cccs3)ccc2O[C@@H]1CN(C)S(=O)(=O)c1cn(C)cn1
C[C@H](CO)N1C[C@H](C)[C@@H](CN(C)Cc2ccccc2)OCCCC[C@H](C)Oc2ccc(NS(=O)(=O)c3cccs3)cc2C1=O
C[C@H](CO)N1C[C@H](C)[C@@H](CN(C)S(C)(=O)=O)Oc2ccc(NC(=O)Cc3ccccc3)cc2CC1=O
Cn1cnc(S(=O)(=O)N2C[C@H](O)COC[C@H]3O[C@H](CC(=O)NCc4cccc(F)c4)CC[C@@H]32)c1
Cc1noc(C)c1S(=O)(=O)N(C)C[C@@H]1Oc2c(NC(=O)C3CC3)cccc2C(=O)N([C@@H](C)CO)C[C@@H]1C
C[C@@H](NC(=O)C[C@H]1C=C[C@@H](NC(=O)CN2CCOCC2)[C@H](CO)O1)c1ccccc1
